Measured values as given in article PMC4336329 (PLoS ONE, 2015).
Screen size: about 310,000 compounds; about 14,000 (4.5%) showed an effect of 50% or more. Effects have a minus sign here. Some of the results follow.

Target: human ether-à-go-go-related gene (hERG) potassium channel (human, UniProt Q12809)
Assay: primary screen, population patch clamp on CHO cells stably expressing hERG
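Also: peak tail current of the secondary pulse compared with the same well before compound.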

human ether-à-go-go-related gene (hERG) potassium channel, sequence (Q12809 whole entry, looked up): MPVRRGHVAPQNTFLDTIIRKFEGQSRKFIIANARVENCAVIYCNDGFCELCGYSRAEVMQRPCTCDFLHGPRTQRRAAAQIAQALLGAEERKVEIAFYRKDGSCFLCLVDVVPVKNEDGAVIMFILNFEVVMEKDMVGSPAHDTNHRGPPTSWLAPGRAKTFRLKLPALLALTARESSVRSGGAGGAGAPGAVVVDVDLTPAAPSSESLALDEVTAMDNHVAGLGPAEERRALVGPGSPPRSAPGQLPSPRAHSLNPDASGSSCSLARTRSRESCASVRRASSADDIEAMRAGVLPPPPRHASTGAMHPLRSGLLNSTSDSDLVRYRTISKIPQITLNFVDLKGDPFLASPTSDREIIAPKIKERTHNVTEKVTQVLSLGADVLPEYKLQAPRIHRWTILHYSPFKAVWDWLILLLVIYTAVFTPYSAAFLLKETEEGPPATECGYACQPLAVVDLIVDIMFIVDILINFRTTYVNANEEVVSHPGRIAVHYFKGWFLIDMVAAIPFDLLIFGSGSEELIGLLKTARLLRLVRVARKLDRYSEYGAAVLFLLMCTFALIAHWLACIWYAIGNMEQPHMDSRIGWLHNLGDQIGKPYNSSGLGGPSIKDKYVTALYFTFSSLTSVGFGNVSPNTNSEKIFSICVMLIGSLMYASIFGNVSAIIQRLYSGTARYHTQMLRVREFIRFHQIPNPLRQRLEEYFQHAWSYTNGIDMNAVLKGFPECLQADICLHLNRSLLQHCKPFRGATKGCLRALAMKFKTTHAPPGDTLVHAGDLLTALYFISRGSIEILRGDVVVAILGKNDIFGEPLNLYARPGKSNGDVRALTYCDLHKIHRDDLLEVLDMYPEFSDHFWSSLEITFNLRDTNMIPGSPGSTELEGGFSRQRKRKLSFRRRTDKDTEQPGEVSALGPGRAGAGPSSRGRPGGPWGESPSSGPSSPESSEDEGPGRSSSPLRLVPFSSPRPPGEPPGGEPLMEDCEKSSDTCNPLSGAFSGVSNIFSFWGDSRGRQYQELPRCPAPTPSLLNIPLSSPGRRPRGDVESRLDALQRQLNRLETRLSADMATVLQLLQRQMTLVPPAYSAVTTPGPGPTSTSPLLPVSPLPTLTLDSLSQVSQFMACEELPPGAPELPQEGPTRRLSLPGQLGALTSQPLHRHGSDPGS

SMILES	hERG current change (%, negative = inhibition) at 10uM [%]
O=C(COC(=O)CNC(=O)c1ccc(-c2ccccc2)cc1)NCc1ccco1	2.07
CCCCOC(=O)NC1(C)CCS(=O)(=O)C1 (stereo not shown)	27.1
Cc1ccc(C(=O)CN2C(=O)c3ccccc3S2(=O)=O)cc1	-15.2
Cc1ccc(S(=O)(=O)C2C(=O)N(C)C3(C)CC2c2ccccc2O3)cc1C (stereo not shown)	-1.49
COc1ccccc1CCNC(=O)C1(C)CC1(Cl)Cl (stereo not shown)	13.3
O=C(c1cccc(-c2ccco2)c1)N1CCCC(N2CCN(c3ccc(F)cc3)CC2)C1 (stereo not shown)	-78.5
COc1cc(CN2CCC(C(=O)N3CCN(c4ccccc4F)CC3)CC2)cc(OC)c1OC.O=C(O)C(=O)O	-22.6
CCN(CC)S(=O)(=O)c1ccc(NC(=O)CO/N=C(\N)c2ccccc2)cc1	-16.6
Cc1csc(NC(=O)CSc2ccccc2F)n1	5.05
O=S(=O)(c1ccc(F)cc1)N1CCN(C(=S)NC2CC2)CC1	-11
CC(C)(C)C(=O)O/N=C(\N)c1c(Cl)cccc1Cl	6.09
O=C(CSc1nnc(Cc2cc(=O)[nH]c(=O)[nH]2)n1-c1ccccc1)N1CCCCC1	20.7
Cn1c(=O)c2c(ncn2CCC(=O)N/N=C/c2ccccc2)n(C)c1=O	-6.1
O=C(OCc1ccc([N+](=O)[O-])cc1)c1cc([N+](=O)[O-])ccc1N1CCOCC1	-76.1
C=CCNC(=O)N1CCc2[nH]c3ccc(F)cc3c2C1	6.56
Cc1ccc(S(=O)(=O)N(C#N)c2nc(C)cc(C)n2)cc1	5
CCOC(=O)CC1CCCCN1C(=O)c1cc(COc2cccc3cnccc23)on1 (stereo not shown)	-12.1
C[C@@H]1C(=O)O[C@H]2CC34[C@H]5C[C@@H](C(C)(C)C)[C@]36[C@@H](OC(=O)[C@@H]6O)O[C@@]4(C(=O)O5)[C@]21O (stereo partly shown)	13.4
Fc1ccccc1-c1nc2ccccc2[nH]1	47.2
Cc1cc(C)n2cc(CSc3nnc(N)s3)nc2n1	8
O=c1cc(N2CCC3(CC2)OCCO3)[nH]c(=O)n1C1CCCCC1	8.9
O=C(O)c1ccc(Cl)c(S(=O)(=O)N(Cc2ccccc2)c2ccc(F)cc2)c1	13.9
Cc1ccc(OCC(=O)NNC(=O)C2CCN(c3nccc(C)n3)CC2)cc1	-12.3
O=C(O)c1cc2nccc(-c3ccc(F)cc3)n2n1	25.4
COc1ccc2sc(N3C(=O)C4CC=C(C)CC4C3=O)nc2c1 (stereo not shown)	-3.56
CCC(Oc1ccccc1)C(=O)Nc1nc2ccccc2[nH]1 (stereo not shown)	-8.73
COc1cc(C2c3c(-c4ccccc4O)n[nH]c3C(=O)N2Cc2ccco2)cc(OC)c1OC (stereo not shown)	-1.67
COCCCn1c2nc3ccccc3nc2c2c(=O)n(-c3ccccc3OC)c(C)nc21	10.5

SMILES	hERG current change (%, negative = inhibition) at 10uM [%]
COC(=O)c1ccc(CN(C(=O)N2CCN(C)CC2)S(=O)(=O)c2ccc(C)cc2)cc1	15.1
COc1cc(CNn2nnnc2N)cc(Br)c1OCc1c(Cl)cccc1Cl	14.3
Nc1ccn(CC(=O)N2CCN(c3ccccn3)CC2)c(=O)n1	17.2
Cc1cc(NC(=O)c2cccnc2)ccc1NC(=O)c1cc2ccccc2o1	11.1
CCOc1cc(C(N)=O)cc(Br)c1OC	9.28
CCOC(=O)c1ccc(N2C(=O)C3CC=C(C)CC3C2=O)cc1 (stereo not shown)	7.74
COc1cc2c3c(c1)c(C1=NC(=S)NC1=O)c(O)n3C(C)(C)C=C2C	10.4
O=C(CNC(=O)c1ccc(Br)cc1)N/N=C/c1ccc[nH]1	20.8
COc1ccc2c(c1)cc(C)c1nnc(SCC(=O)N3CCN(C(=O)c4ccco4)CC3)n12	-40.1
O=c1[nH]c(CCl)nc2cc(-c3ccc(F)cc3)sc12	15.2
COc1ccccc1CCc1nnc(CCC(=O)NCCOc2cccnc2)o1	7.9
O=C(/C=C/c1ccco1)NC(=S)Nc1ccccc1N1CCCC1	-9.61
O=C(c1ccc(Cl)cc1Cl)N1CCN(c2ccc(N3CCOCC3)nn2)CC1	-27
CC(C)(C)N1C(=O)NC(=O)/C(=C\c2ccc3c(c2)CCN3CCCCl)C1=O	-0.0837
CSc1n[nH]c(=S)n1N	26.3
CCOc1ccc(-c2nc3n(c(=O)c2C#N)CCCS3)cc1	5.87
O=C(c1cc2ccccc2o1)N1CCN(c2cccc(Cl)c2)CC1	-16.3
Cc1ccc2nc(N3C(=O)C(O)=C(C(=O)c4ccco4)C3c3ccc(O)cc3)sc2c1.O=C(O)C(=O)O (stereo not shown)	25.4
CC1CC(C)CN(S(=O)(=O)c2cc3c4c(c2)CCN4C(=O)CC3)C1 (stereo not shown)	-3.3
CC1CCN(C(=O)CSc2nc3ccccc3c(=O)n2Cc2ccc3c(c2)OCO3)CC1	-13.6
CCC(=O)Nc1ccc(-c2cc(-c3ccccc3)nc(-c3ccc(NC(=O)CC)cc3)n2)cc1	19.1
Cc1cccc(NC(=O)CSc2nnc(-c3ccncc3)n2CC2CCCO2)c1 (stereo not shown)	-19.5
O=C(COC(=O)c1cncc(Br)c1)NC1CCCCC1	16.1
COc1ccc(-n2ncc(S(=O)(=O)c3ccccc3)c2-c2ccc(Cl)cc2)cc1	2.36
CCOC(=O)c1[nH]c2c(c1C)C(=O)CC(c1ccc(OCC)c(OC)c1)C2 (stereo not shown)	-7.59
CN(C)S(=O)(=O)c1ccc(N2CCCC2)c(C(=O)N2CCC(C(N)=O)CC2)c1	23.9
CCN(CC)CCN1C(=O)C(=O)/C(=C(/O)c2ccc(OC(C)C)cc2)C1c1cccs1 (stereo not shown)	0.529
